Consider 15 sequences from publication PMC12529666.

Only a part is listed here, and it is no random draw. At the low end of the ranking, values are background and their order means little. Some of the results follow.

Assay [1] addresses AGO2 WT (phosphosite mutant background) S387D + S824A + S828D + S831D + S834A (UniProt Q9UKV8). Kind of assay: RNA Bind-n-Seq (nitrocellulose filter binding and sequencing). The following applies: constant regions annealed to DNA blockers; guide miR-122 5' phosphate; 30 mM Tris pH 8.0, 100 mM potassium acetate, 2 mM magnesium acetate, 0.5 mM TCEP, 0.005% NP-40, 0.01 mg/ml yeast tRNA; 3 nM AGO2-miR-122, 100 nM RNA library …; high values mean tight binding.

Assay [2] addresses AGO2 F182del S387D + S824A + S828D + S831D + S834A + del182-182 (UniProt Q9UKV8). The assay is described as above. The note with it: constant regions annealed to DNA blockers; guide miR-122 5' phosphate; 30 mM Tris pH 8.0, 100 mM potassium acetate, 2 mM magnesium acetate, 0.5 mM TCEP, 0.005% NP-40, 0.01 mg/ml yeast tRNA; 3 nM AGO2-miR-122, 100 nM RNA library …; high values mean tight binding.

As for “GAGUUCUACAGUCCGACGAUCCCAACACGCCUCACACCUGGAAUUCUCGGGUGCCAA / UGGAGUGUGACAAUGGUGUUUG / GATCGTCGGACTGTAGAACTC / TTGGCACCCGAGAATTCCA”, the binding signal (fold enrichment over input) in assay [1] was 0.15; in assay [2], 0.822.
On the same counts, the results for “GAGUUCUACAGUCCGACGAUCCCAACACGCUCCGCACCUGGAAUUCUCGGGUGCCAA / UGGAGUGUGACAAUGGUGUUUG / GATCGTCGGACTGTAGAACTC / TTGGCACCCGAGAATTCCA” are 3.15 and 15.2.
On the same counts, the results for “GAGUUCUACAGUCCGACGAUCCCAACAUAUCUUGCACCUGGAAUUCUCGGGUGCCAA / UGGAGUGUGACAAUGGUGUUUG / GATCGTCGGACTGTAGAACTC / TTGGCACCCGAGAATTCCA” are 0.099 and 0.0543.
For the sequence “GAGUUCUACAGUCCGACGAUCCCAACGUGCCCCGCACCUGGAAUUCUCGGGUGCCAA / UGGAGUGUGACAAUGGUGUUUG / GATCGTCGGACTGTAGAACTC / TTGGCACCCGAGAATTCCA”, the binding signal (fold enrichment over input) stood at 0.102 in assay [1] and 0.0427 in assay [2].
On the same counts, the results for “GAGUUCUACAGUCCGACGAUCCCAACGUAUCUCGCACCUGGAAUUCUCGGGUGCCAA / UGGAGUGUGACAAUGGUGUUUG / GATCGTCGGACTGTAGAACTC / TTGGCACCCGAGAATTCCA” are 0.0879 and 0.0455.
On the same counts, the results for “GAGUUCUACAGUCCGACGAUCCCAACAUGCUUUACACCUGGAAUUCUCGGGUGCCAA / UGGAGUGUGACAAUGGUGUUUG / GATCGTCGGACTGTAGAACTC / TTGGCACCCGAGAATTCCA” are 0.109 and 0.0729.
As for “GAGUUCUACAGUCCGACGAUCCCAACGCGUUUCGCACCUGGAAUUCUCGGGUGCCAA / UGGAGUGUGACAAUGGUGUUUG / GATCGTCGGACTGTAGAACTC / TTGGCACCCGAGAATTCCA”, the results for the binding signal (fold enrichment over input) in assay [1] and in assay [2] were 0.102 and 0.0359, respectively.
In the same order, the values of “GAGUUCUACAGUCCGACGAUCCCAACAUGUCUUACACCUGGAAUUCUCGGGUGCCAA / UGGAGUGUGACAAUGGUGUUUG / GATCGTCGGACTGTAGAACTC / TTGGCACCCGAGAATTCCA” are 0.142 and 0.57.
On the same counts, the results for “GAGUUCUACAGUCCGACGAUCCCAACACAUCCUACACCUGGAAUUCUCGGGUGCCAA / UGGAGUGUGACAAUGGUGUUUG / GATCGTCGGACTGTAGAACTC / TTGGCACCCGAGAATTCCA” are 0.139 and 0.299.
On the same counts, the results for “GAGUUCUACAGUCCGACGAUCCCAACAUAUUCCGCACCUGGAAUUCUCGGGUGCCAA / UGGAGUGUGACAAUGGUGUUUG / GATCGTCGGACTGTAGAACTC / TTGGCACCCGAGAATTCCA” are 0.0864 and 0.0511.
Regarding “GAGUUCUACAGUCCGACGAUCCCAACGCACUUUGCACCUGGAAUUCUCGGGUGCCAA / UGGAGUGUGACAAUGGUGUUUG / GATCGTCGGACTGTAGAACTC / TTGGCACCCGAGAATTCCA”, the binding signal (fold enrichment over input) in assay [1] amounted to 0.0824; in assay [2], 0.0347.
In the same order, the values of “GAGUUCUACAGUCCGACGAUCCCAACGCGUCUCGCACCUGGAAUUCUCGGGUGCCAA / UGGAGUGUGACAAUGGUGUUUG / GATCGTCGGACTGTAGAACTC / TTGGCACCCGAGAATTCCA” are 0.0967 and 0.0394.
In the same order, the values of “GAGUUCUACAGUCCGACGAUCCCAACACGUUCCGCACCUGGAAUUCUCGGGUGCCAA / UGGAGUGUGACAAUGGUGUUUG / GATCGTCGGACTGTAGAACTC / TTGGCACCCGAGAATTCCA” are 0.0857 and 0.0618.
On the same counts, the results for “GAGUUCUACAGUCCGACGAUCCCAACACACCCUACACCUGGAAUUCUCGGGUGCCAA / UGGAGUGUGACAAUGGUGUUUG / GATCGTCGGACTGTAGAACTC / TTGGCACCCGAGAATTCCA” are 0.142 and 0.799.
With “GAGUUCUACAGUCCGACGAUCCCAACAUGCUCUGCACCUGGAAUUCUCGGGUGCCAA / UGGAGUGUGACAAUGGUGUUUG / GATCGTCGGACTGTAGAACTC / TTGGCACCCGAGAATTCCA”, the binding signal (fold enrichment over input) in assay [1] worked out at 0.0998; in assay [2] it was 0.0578.
